Data reported in article PMC10638516 (Acta Pharmaceutica Sinica. B, 2023).

What was measured:
[1] = target: T1, hD2R (Homo sapiens, UniProt P14416); assay: biochemical; type: binding
[2] = target: T2, hD3R (Homo sapiens, UniProt P35462); assay: biochemical; type: binding
[3] = target: hD1 (Homo sapiens, UniProt P21728); assay: biochemical; type: binding
[4] = target: T3, hD4 (Homo sapiens, UniProt P21917); assay: biochemical; type: binding
T3 sequence (P21917 1-419): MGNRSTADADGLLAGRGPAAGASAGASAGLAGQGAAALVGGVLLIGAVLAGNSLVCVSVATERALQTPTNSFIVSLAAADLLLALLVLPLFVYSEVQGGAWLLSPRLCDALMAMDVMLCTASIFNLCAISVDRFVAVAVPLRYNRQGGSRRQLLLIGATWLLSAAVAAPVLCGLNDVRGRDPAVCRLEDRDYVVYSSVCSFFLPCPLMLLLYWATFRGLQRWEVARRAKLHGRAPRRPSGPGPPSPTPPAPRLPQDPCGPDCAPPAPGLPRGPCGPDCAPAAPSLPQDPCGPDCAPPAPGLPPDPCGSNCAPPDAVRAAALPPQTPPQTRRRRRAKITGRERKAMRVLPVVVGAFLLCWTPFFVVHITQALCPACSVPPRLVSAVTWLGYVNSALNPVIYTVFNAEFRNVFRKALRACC

[5] = target: hD5 (Homo sapiens, UniProt P21918); assay: biochemical; type: binding
[6] = target: h5-HT1B (Homo sapiens, UniProt P28222); assay: biochemical; type: binding
[7] = target: h5-HT2A (Homo sapiens, UniProt P28223); assay: biochemical; type: binding
[8] = target: h5-HT6 (Homo sapiens, UniProt P50406); assay: biochemical; type: binding
[9] = target: hH1 (Cavia porcellus, UniProt P31389); assay: biochemical; type: binding, guinea pig
[10] = target: hα1; type: binding, rat; details: read-out: Ki hα1; Table 6 selectivity profile
[11] = target: hNET (Homo sapiens, UniProt P23975); assay: biochemical; type: binding
[12] = target: hSERT (Homo sapiens, UniProt P31645); assay: biochemical; type: binding
[13] = target: T2, hD3R; assay: ERK1/2 phosphorylation; type: cell-based
[14] = target: T1, hD2R; type: cell-based
[15] = target: hERG channel (Homo sapiens, UniProt Q12809); assay: hERG channel automated patch clamp; type: cell-based; details: hERG inhibition IC50, patch clamp, tested three times
[16] = tested on: HEK293T cells; assay: CCK8 cytotoxicity test, HEK293T; type: cell-based; details: 24 h, CCK8, compared with RPD
[17] = tested on: BV2 cells; assay: CCK8 cytotoxicity test, BV2; type: cell-based; details: 24 h, CCK8, compared with RPD
[18] = tested on: PC12 cells; assay: CCK8 cytotoxicity test, PC12; type: cell-based; details: 24 h
[19] = Pharmacokinetics study in ICR mice; type: in vivo; details: mouse, plasma
[20] = BBB penetration study in ICR mice; type: in vivo, mouse; details: for concentration at 0.5 h / concentration at 2 h / Kp at 0.5 h / Kp at 2 h: ICR, mouse; for Kp at 0.5 h: Brain/plasma ratio at 0.5 h; for Kp at 2 h: Brain/plasma ratio at 2.0 h
[21] = tested on: mice; assay: Acute toxicity assay in mice; type: in vivo, mouse; details: i.p., up to 600 mg/kg
[22] = tested on: mice; assay: Catalepsy test in mice; type: in vivo, mouse
[23] = tested on: ICR mice; assay: Apomorphine-induced climbing; type: in vivo, mouse; details: i.p., apomorphine 1.0 mg/kg s.c.
[24] = tested on: ICR mice; assay: Tail suspension test; type: in vivo, mouse
[25] = tested on: ICR mice; assay: Forced swimming test; type: in vivo, mouse; details: 36b 3, 10, 30 mg/kg, DLX 15 mg/kg
[26] = Weight gain on repeated oral dosing; type: in vivo, mouse; details: mice, p.o. once daily 30 days; 23j, 36b 30 mg/kg; RPD 1 mg/kg
[27] = tested on: mice; assay: Serum prolactin after repeated oral dosing; type: in vivo, mouse; details: after 30 days p.o. dosing, 23j, 36b 30 mg/kg, RPD 1 mg/kg
[28] = tested on: ICR mice; assay: Spontaneous locomotor test; details: compounds 30 mg/kg i.p., RPD 1 mg/kg, 15 min
[29] = Catalepsy test in mice; type: in vivo, mouse; details: mouse, in vivo, ip, Catalepsy ED50 i.p.
[30] = brain, iv, 3 mg/kg, 3 mg/kg i.v.
[31] = brain, po, 10 mg/kg, 10 mg/kg p.o.

T1 sequence (P14416 whole entry): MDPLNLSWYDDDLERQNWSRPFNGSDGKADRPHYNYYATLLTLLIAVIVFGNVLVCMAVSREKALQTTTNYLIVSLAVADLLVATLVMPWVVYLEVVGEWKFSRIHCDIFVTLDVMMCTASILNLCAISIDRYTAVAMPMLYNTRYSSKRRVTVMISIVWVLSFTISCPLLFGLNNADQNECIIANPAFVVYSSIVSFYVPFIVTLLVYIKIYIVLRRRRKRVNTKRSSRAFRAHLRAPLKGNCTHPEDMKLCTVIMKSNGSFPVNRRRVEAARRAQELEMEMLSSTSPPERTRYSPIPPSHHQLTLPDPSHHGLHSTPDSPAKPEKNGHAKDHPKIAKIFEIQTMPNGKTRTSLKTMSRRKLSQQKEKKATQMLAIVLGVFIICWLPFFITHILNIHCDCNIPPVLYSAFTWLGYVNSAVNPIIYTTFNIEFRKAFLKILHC
T2 sequence (P35462 whole entry): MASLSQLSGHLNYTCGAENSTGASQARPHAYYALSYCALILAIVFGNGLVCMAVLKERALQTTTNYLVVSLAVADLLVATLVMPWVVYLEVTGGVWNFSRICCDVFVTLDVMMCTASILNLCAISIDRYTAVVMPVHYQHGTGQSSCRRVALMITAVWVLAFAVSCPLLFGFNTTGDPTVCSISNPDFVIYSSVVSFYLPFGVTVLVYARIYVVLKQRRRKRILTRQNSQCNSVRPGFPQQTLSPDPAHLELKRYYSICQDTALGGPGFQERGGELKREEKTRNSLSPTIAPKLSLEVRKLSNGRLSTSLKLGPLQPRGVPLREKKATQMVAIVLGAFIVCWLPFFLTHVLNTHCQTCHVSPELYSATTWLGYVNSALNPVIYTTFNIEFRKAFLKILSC
UniProt P31389, sequence (P31389 whole entry): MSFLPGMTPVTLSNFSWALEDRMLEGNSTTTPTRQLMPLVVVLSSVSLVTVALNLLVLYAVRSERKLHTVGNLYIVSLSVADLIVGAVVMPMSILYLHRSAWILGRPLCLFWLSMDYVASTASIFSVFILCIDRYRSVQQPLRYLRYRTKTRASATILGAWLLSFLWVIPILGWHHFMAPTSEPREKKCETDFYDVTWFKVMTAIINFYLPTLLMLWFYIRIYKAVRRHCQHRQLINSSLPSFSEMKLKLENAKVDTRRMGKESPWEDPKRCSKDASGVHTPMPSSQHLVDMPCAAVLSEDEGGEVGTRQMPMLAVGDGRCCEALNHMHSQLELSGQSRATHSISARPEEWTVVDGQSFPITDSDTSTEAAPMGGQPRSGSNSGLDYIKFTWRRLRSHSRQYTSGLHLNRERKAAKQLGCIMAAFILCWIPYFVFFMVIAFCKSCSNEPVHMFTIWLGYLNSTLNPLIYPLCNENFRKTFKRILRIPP
UniProt P23975, sequence (P23975 whole entry): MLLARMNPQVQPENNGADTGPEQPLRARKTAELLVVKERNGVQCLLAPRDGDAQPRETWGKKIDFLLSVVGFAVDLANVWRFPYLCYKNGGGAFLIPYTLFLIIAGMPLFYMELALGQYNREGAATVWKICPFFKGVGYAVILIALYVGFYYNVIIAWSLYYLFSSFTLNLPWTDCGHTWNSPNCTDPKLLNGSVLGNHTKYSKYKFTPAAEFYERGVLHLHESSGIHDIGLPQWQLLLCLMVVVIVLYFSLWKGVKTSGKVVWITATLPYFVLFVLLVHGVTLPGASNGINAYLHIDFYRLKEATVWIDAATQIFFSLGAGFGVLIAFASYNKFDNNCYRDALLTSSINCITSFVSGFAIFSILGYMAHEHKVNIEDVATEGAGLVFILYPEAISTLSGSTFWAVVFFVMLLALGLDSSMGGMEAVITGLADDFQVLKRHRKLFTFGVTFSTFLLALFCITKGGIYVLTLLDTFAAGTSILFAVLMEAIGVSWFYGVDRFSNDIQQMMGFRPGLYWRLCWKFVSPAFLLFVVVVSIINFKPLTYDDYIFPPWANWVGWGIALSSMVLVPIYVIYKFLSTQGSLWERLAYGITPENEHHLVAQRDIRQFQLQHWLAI
UniProt P28222, sequence (P28222 whole entry): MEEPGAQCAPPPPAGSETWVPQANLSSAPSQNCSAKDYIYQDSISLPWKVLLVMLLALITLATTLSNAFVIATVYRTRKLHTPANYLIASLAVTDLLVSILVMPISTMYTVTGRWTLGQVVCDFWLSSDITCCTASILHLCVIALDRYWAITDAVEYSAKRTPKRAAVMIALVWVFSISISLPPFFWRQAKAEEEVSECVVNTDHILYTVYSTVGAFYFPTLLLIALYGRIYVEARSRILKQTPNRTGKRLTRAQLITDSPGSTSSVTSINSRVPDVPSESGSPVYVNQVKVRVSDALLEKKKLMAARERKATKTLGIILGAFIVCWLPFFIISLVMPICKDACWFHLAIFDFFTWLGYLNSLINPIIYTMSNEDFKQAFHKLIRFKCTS
UniProt Q12809, sequence (Q12809 whole entry): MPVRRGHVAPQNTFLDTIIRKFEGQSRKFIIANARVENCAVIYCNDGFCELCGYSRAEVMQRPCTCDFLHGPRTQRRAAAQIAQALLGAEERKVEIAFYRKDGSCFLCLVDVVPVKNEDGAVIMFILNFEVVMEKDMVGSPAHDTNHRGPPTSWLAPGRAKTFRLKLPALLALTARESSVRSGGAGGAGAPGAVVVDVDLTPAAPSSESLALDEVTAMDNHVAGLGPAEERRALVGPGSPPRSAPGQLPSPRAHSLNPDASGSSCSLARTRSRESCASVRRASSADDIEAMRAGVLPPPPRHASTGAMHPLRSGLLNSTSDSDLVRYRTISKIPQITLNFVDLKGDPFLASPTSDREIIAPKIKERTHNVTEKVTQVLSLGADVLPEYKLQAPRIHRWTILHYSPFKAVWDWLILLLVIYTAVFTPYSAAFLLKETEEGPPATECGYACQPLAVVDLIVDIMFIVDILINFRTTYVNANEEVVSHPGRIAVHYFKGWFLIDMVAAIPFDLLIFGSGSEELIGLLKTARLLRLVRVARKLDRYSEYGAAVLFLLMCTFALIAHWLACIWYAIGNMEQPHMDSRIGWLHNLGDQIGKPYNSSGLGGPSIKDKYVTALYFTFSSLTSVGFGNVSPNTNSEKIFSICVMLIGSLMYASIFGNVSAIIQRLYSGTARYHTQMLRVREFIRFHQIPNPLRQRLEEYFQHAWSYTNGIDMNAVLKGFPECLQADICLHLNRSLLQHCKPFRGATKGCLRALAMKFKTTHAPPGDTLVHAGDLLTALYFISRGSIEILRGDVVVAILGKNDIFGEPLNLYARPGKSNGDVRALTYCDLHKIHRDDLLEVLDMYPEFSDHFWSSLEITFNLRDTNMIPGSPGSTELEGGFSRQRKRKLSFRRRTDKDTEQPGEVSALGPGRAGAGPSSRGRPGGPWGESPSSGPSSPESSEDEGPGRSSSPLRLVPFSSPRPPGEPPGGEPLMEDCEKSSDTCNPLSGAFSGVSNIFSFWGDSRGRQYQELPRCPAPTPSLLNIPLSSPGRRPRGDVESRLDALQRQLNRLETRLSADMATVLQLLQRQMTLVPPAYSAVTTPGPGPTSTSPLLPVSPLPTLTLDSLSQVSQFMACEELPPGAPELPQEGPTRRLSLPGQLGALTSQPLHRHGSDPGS
UniProt P28223, sequence (P28223 whole entry): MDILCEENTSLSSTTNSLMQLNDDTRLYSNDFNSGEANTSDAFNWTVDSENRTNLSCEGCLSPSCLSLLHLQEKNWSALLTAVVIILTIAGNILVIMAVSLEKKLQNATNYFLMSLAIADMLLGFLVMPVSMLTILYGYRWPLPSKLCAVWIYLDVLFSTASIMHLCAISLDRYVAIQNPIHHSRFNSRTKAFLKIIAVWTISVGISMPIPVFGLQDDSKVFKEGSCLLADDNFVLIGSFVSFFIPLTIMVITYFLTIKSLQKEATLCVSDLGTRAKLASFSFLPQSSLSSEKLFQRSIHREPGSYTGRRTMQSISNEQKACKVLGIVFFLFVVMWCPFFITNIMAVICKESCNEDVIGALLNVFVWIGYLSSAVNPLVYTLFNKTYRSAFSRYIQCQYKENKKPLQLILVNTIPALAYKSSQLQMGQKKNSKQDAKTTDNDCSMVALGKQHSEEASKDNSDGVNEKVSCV
UniProt P31645, sequence (P31645 whole entry): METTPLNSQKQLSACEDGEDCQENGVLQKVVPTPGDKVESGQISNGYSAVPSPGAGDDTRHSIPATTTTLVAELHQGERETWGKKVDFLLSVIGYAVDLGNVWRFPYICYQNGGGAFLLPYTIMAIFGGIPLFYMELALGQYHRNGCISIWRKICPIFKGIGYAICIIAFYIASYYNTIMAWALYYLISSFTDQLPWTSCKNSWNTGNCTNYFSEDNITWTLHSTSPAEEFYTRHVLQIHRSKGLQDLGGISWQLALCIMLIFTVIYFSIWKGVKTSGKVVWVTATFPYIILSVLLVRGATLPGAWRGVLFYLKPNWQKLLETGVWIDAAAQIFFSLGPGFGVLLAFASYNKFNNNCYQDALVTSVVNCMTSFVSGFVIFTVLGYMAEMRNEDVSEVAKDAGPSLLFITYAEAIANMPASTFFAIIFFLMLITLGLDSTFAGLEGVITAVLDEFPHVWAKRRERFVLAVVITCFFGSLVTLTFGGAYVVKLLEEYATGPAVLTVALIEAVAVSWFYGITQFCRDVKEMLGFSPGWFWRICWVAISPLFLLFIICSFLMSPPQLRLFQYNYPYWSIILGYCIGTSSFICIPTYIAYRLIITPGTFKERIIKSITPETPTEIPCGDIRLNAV

Cn1c2c(c3ccccc31)CN(CCCCNC(=O)c1nc3ccccc3[nH]1)CC2 [36b]
Ki [1]: > 10000 nM | inhibition at 10 µM ([1]; read-out: % inhibition at 10 μmol/L hD2): 19.6 ± 5.7% | Ki ([2]; Ki hD3, three experiments, means ± SEM): 16.8 ± 1.8 nM | inhibition at 10 µM ([2]; read-out: % inhibition at 10 μmol/L hD3, 10 μmol/L test compound): 97.9 ± 3.6% | Ki [3]: > 10000 nM | Ki [4]: 8810 nM | Ki [5]: > 10000 nM | Ki [6]: 138 nM | Ki [7]: 398 nM | Ki [8]: 10300 nM | Ki [9]: 2310 nM | Ki [10]: 2220 nM | Ki [11]: > 10000 nM | Ki [12]: > 10000 nM | effect on ERK1/2 phosphorylation mediated by hD3R, compound alone (agonist mode) ([13]; CHO-hD3R cells, quinpirole at 20 μmol/L): no influence | competitive antagonism of ERK1/2 phosphorylation mediated by D3R ([13]; in the presence of 20 μmol/L dopamine): dose-dependently inhibit | effect on ERK1/2 phosphorylation mediated by hD2R, compound alone (agonist mode) [14]: weak partial agonism | IC50 [15]: 1750 nM | effect on the viability of HEK293T [16]: less effects | effect on the viability of BV2 [17]: less effects | cytotoxicity in PC12 cells [18]: best safety profiles | AUC ([19]; iv, 3 mg/kg): 677 ng·h/mL | Cmax ([19]; iv, 3 mg/kg): 1230 ng/mL | MRT ([19]; iv, 3 mg/kg): 30.6 min | Tmax ([19]; iv, 3 mg/kg): 4.8 min | Vd ([19]; iv, 3 mg/kg): 2.33 L/kg | clearance ([19]; iv, 3 mg/kg): 73.7 mL/min/kg | half-life ([19]; iv, 3 mg/kg, t1/2, ICR mice, 3 mg/kg i.v., single dose): 52.2 min | bioavailability ([19]; oral, 10 mg/kg): 39.7% | AUC ([19]; po, 10 mg/kg): 896 ng·h/mL | Cmax ([19]; po, 10 mg/kg): 505 ng/mL | MRT ([19]; po, 10 mg/kg): 102 min | Tmax ([19]; po, 10 mg/kg): 15 min | Brain concentration at 0.5 h ([20]; 3 mg/kg i.v., 3 mg/kg): 1552.86 ng/mL | Brain concentration at 0.5 h ([20]; 10 mg/kg p.o., 10 mg/kg): 310.17 ng/mL | Brain concentration at 2.0 h ([20]; 10 mg/kg p.o., 10 mg/kg): 181.65 ng/mL | concentration at 0.5 h ([20]; brain, iv, 3 mg/kg, Brain concentration at 0.5 h, 3 mg/kg i.v.): 1550 ng/mL | concentration at 2 h ([20]; brain, iv, 3 mg/kg, Brain concentration at 2.0 h, 3 mg/kg i.v.): 139 ng/mL | Kp at 0.5 h [20, 30]: 4.5 | Kp at 2 h [20, 30]: 5.57 | concentration at 0.5 h ([20]; brain, po, 10 mg/kg, Brain concentration at 0.5 h, 10 mg/kg p.o.): 310 ng/mL | concentration at 2 h ([20]; brain, po, 10 mg/kg, Brain concentration at 2.0 h, 10 mg/kg p.o.): 180 ng/mL | Kp at 0.5 h [20, 31]: 0.74 | Kp at 2 h [20, 31]: 0.97 | concentration at 0.5 h ([20]; plasma, iv, 3 mg/kg, Plasma concentration at 0.5 h, 3 mg/kg i.v.): 345 ng/mL | concentration at 2 h ([20]; plasma, iv, 3 mg/kg, Plasma concentration at 2.0 h, 3 mg/kg i.v.): 24.9 ng/mL | concentration at 0.5 h ([20]; plasma, po, 10 mg/kg, Plasma concentration at 0.5 h, 10 mg/kg p.o.): 421 ng/mL | concentration at 2 h ([20]; plasma, po, 10 mg/kg, Plasma concentration at 2.0 h, 10 mg/kg p.o.): 188 ng/mL | acute toxicity / tolerance [21]: well tolerant | Catalepsy MED i.p. (minimum effective dose) [22]: ≥480.0 mg/kg | Catalepsy peak effect (percent of cataleptic animals) ([22]; i.p.): 0.0% | catalepsy under all tested doses ([22]; i.p., 23j up to 240 mg/kg, 36a/b/f up to 480 mg/kg): did not elicit catalepsy | inhibition of apomorphine-induced climbing [23]: dose-dependently inhibit | immobility time in the TST, 3 mg/kg group ([24]; 3 mg/kg): did not show significant differences | latency by first observed TST immobility ([24]; 36b 3, 10, 30 mg/kg): only 30 mg/kg group was found to be prolonged | immobility time in the TST ([24]; 36b 3, 10, 30 mg/kg, DLX 15 mg/kg): dose-dependently decreased | immobility time of FST [25]: 30 mg/kg group showed activities, but lower dose groups did not | body weight / weight gain [26]: No influence on body weight | serum prolactin level [27]: nonsignificant serum prolactin change | effect on spontaneous locomotion [28]: no influences

Cc1nc2n(c(=O)c1CCN1CCC(c3noc4cc(F)ccc34)CC1)CCCC2 [Risperidone, reference compound]
ED50 [29]: ~1.51 mg/kg | Catalepsy MED i.p. (minimum effective dose) [22]: 2.4 mg/kg | Catalepsy peak effect (percent of cataleptic animals) ([22]; i.p.): 100.0%
